No constants are given. Whether binding was seen depends on the method and setting. For some of these results: In cells and extracts the contact can be indirect. Some binding calls cover weakened binding; strength is not graded here. Where a sequence is shown, tags or fusion partners need not be part of it. Each block holds one molecule with its values, some of them ahead of it.
How the values were obtained:
[1] = molecular target: T1, immunoglobulin mu DNA binding protein 2 (IGHMBP2), human, full length, thioredoxin-6xHis fusion from pET32b (human) (UniProt P38935); assay: MST; IGHMBP2 RED-Tris-NTA labelled, constant 100 nM; partner titrated (1 μM to 1.53 × 10^5 μM as printed); fit to a quadratic equation, MO.Affinity Analysis; both purified
T1 sequence (chain, RED-Tris-NTA (NT-647) fluorescent label in the MST): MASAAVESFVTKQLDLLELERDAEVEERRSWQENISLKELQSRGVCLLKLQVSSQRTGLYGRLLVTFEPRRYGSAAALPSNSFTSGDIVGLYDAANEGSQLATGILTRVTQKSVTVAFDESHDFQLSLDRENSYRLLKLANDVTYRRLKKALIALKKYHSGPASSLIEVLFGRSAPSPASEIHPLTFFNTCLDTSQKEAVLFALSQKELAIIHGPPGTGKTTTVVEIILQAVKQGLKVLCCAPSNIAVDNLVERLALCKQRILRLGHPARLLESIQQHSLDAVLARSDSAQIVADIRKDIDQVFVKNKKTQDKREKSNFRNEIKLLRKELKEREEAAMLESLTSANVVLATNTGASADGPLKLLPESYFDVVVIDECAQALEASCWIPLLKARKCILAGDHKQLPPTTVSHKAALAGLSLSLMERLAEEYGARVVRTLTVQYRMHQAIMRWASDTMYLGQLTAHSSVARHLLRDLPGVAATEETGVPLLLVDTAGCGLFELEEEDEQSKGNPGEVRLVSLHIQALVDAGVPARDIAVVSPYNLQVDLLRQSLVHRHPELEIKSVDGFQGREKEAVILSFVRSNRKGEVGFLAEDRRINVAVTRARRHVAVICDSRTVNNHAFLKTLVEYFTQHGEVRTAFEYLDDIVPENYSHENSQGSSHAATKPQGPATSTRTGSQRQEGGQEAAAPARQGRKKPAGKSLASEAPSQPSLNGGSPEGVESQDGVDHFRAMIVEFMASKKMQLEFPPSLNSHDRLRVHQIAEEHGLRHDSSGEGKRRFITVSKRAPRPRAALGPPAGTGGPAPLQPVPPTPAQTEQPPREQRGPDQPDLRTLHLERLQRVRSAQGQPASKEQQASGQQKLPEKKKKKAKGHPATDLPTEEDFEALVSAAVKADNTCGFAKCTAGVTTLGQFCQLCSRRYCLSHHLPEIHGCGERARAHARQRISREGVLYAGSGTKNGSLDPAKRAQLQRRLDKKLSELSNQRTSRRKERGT

Amino acid sequences for entries named in this document (tags omitted).
UniProt P38432: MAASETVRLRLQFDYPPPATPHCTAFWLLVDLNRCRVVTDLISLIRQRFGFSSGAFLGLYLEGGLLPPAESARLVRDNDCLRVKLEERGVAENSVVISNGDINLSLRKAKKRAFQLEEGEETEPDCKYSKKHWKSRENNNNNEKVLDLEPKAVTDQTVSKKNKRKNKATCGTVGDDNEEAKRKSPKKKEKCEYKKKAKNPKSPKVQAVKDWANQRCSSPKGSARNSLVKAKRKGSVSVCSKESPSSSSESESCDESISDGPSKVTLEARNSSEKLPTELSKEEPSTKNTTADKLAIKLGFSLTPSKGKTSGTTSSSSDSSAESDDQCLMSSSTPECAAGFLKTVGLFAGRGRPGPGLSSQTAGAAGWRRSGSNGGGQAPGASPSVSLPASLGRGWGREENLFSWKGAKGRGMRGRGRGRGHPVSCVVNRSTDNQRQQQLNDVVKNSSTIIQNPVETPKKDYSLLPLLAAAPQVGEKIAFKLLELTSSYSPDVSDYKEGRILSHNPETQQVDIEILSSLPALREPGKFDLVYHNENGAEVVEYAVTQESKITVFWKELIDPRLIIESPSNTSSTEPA

[2] = molecular target: T1, immunoglobulin mu DNA binding protein 2 (IGHMBP2), human, full length, thioredoxin-6xHis fusion from pET32b (human); assay: dynamic light scattering; purified proteins incubated 1:1, each at 100 nm (so in the source), diluted in PBS, 24 °C, Zetasizer; size by intensity; both purified
[3] = molecular target: T1, immunoglobulin mu DNA binding protein 2 (IGHMBP2), human, full length, thioredoxin-6xHis fusion from pET32b (human); assay: co-IP; pET32b-IGHMBP2 + GST-ABT1 from E. coli mixed, precleared with A/G beads, IP overnight at 4 °C with anti-His, anti-IGHMBP2, anti-ABT1 or anti-GST, washed in 10 mM Tris pH 7.4, 1 mM EGTA, 150 mM NaCl, 1% Triton X-100; Western blot with anti-IGHMBP2 or anti-ABT1; results call the proteins purified, methods and legend call them bacterial lysates
[4] = molecular target: T1, immunoglobulin mu DNA binding protein 2 (IGHMBP2), human, full length, thioredoxin-6xHis fusion from pET32b (human); assay: cross-linking; IGHMBP2 + ABT1 with 5′ ETS RNA or U3 snoRNA, UV 254 nm, RNase A, SDS-PAGE; upshifted band cut out, trypsin digested, LC-MS; both purified
[5] = molecular target: T1, immunoglobulin mu DNA binding protein 2 (IGHMBP2), human, full length, thioredoxin-6xHis fusion from pET32b (human); assay: cross-linking; unpublished observations: IGHMBP2 + ABT1 with 5′ ETS RNA or U3 snoRNA, UV cross-linked, SDS-PAGE, Western blot with anti-ABT1 and anti-IGHMBP2; both purified
[6] = molecular target: T2, activator of basal transcription 1 (ABT1), mouse, full length, GST fusion from pGEX-6P1 (mouse) (UniProt Q9QYL7); assay: co-IP; pET32b-IGHMBP2 + GST-ABT1 from E. coli mixed, precleared with A/G beads, IP overnight at 4 °C with anti-His, anti-IGHMBP2, anti-ABT1 or anti-GST, washed in 10 mM Tris pH 7.4, 1 mM EGTA, 150 mM NaCl, 1% Triton X-100; Western blot with anti-IGHMBP2 or anti-ABT1; results call the proteins purified, methods and legend call them bacterial lysates
T2 sequence: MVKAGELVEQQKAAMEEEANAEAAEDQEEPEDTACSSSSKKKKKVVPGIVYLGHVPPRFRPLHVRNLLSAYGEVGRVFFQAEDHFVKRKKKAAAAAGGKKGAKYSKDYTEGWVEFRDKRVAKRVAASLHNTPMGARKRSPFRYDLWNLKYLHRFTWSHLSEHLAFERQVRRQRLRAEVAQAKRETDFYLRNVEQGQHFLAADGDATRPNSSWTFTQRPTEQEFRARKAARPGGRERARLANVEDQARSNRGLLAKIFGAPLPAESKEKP

binding [2]: no binding
Molecule: p80 (Coilin) (from UniProt P38432 1-576)
binding [1]: no binding (tested: 1 μM to 1.53 × 10^5 μM p80)

binding [3]: binds
binding [4]: binds
binding [5]: binds
binding [2]: binds
B1: activator of basal transcription 1 (ABT1), mouse, full length, GST fusion from pGEX-6P1 (natural protein, UniProt Q9QYL7 1-269, looked up)
chain: T2 sequence
notes: ABT1, mouse, full-length cDNA synthesized (GenScript), cloned into pGEX6P1; 31 kDa ABT1 + ~26 kDa GST, predicted ~57 kDa; Mouse ABT1 was tested against human IGHMBP2; No cleavage of GST is described; also called GST-ABT1; pGEX-ABT1; source: E. coli (BL21 and Rosetta strains used), purified on GST beads, eluted with reduced glutathione; bacterial cell lysate in the immunoprecipitation

binding [6]: binds
B2: immunoglobulin mu DNA binding protein 2 (IGHMBP2), human, full length, thioredoxin-6xHis fusion from pET32b (enzyme, UniProt P38935 1-993)
chain: T1 sequence (chain, RED-Tris-NTA (NT-647) fluorescent label in the MST)
modifications: RED-Tris-NTA (NT-647) fluorescent label in the MST

Reference: publication PMC9977310, “ABT1 modifies SMARD1 pathology via interactions with IGHMBP2 and stimulation of ATPase and helicase activity” (JCI Insight, 2023)
